{"source": "PubChem BioAssay AID588591", "about": "(National Center for Advancing Translational Sciences (NCATS), 2011)", "note": "About 4,700 (1.2%) of roughly 390,000 compounds were called active. This list was built around the results that the source calls inconclusive (neither active nor inactive); the mix of calls is not that of the screen. Calls follow the shape of the dose curve; as a rule, active = well fitted inhibition curve with a large enough effect; inconclusive = small, poorly fitted or top-dose-only effect, or another doubt; inactive = no such curve, though single readings can be large or run the other way. Potencies beside an inconclusive call are fits to weak or partial responses and may not hold up. % is scaled to controls: 0 for no effect and ±100 for the full control effect; potency is read from the fitted curve at half-maximal effect; tags tell the direction and shape of the fitted curve."}
{"target": "DNA polymerase eta (Homo sapiens) (UniProt Q9Y253)", "sequence (Q9Y253 whole entry, looked up)": "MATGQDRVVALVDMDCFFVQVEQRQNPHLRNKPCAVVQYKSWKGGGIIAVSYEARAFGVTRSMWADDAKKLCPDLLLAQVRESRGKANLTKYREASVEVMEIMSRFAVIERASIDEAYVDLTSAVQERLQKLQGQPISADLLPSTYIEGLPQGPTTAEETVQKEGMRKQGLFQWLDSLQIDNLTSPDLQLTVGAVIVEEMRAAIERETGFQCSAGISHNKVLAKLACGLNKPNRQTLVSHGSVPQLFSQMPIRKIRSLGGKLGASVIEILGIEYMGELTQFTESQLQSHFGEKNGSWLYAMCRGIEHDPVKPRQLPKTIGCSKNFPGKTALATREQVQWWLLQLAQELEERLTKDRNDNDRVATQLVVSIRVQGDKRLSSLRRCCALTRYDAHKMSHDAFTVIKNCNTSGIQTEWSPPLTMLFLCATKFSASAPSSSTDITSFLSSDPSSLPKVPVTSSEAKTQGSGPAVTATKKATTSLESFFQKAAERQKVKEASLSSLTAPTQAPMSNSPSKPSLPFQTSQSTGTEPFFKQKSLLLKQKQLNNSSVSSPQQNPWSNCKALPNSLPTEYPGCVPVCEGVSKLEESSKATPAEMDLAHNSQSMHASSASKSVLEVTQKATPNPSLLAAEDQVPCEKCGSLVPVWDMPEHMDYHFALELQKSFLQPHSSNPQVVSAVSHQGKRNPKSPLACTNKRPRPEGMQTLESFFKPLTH", "experiment": "qHTS for Inhibitors of Polymerase Eta", "details": "recombinant Pol eta, fluorescent DNA replication assay; series mostly up to 114 µM; activity change, negative = inhibition: at the top concentration", "method_in_brief": "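Pol eta (10 nM) was preincubated with compounds for 15 min at room temperature, after which fluorescent replication substrate (50 nM final) was added to start the reaction. Fluorescence was read kinetically at 0 and 10 min.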"}
{"smiles": "Cc1ccc(S(=O)(=O)c2cnc(SCC(=O)Nc3ccc4c(c3)OCCO4)[nH]c2=O)cc1Cl", "Potency": "inconclusive: 89.1 µM [inhibitor, single point]"}
{"smiles": "Cc1nonc1NC(=O)CSc1nc2ccccc2[nH]1", "Potency": "inconclusive: 39.8 µM [inhibitor, single point]"}
{"smiles": "N#C/C(=C/c1ccc(OCc2ccccc2)cc1)C(=O)NC1CCCCC1", "Potency": "inconclusive: 89.1 µM [inhibitor, single point]"}
{"smiles": "O=C(/C=C/c1ccc(NC(=O)c2ccccc2-c2ccccc2C(=O)O)cc1)c1ccccc1", "Potency": "active: 11.2 µM"}
{"smiles": "Cc1ccc(NS(=O)(=O)c2ccc(-c3cnc(C4CC4)o3)cc2)cc1N(C)C", "Potency": "inconclusive: 50.1 µM [inhibitor, partial curve, poor fit]"}
{"smiles": "CCOC(=O)C1=C(C)S/C(=C\\N(C)C)C1=O", "Potency": "inconclusive: 25.1 µM [inhibitor, partial curve, poor fit]"}
{"smiles": "CCOc1ccc(NS(=O)(=O)c2ccc3[nH]cc(C(=O)N(CC)CC)c(=O)c3c2)cc1", "Potency": "active: 20 µM"}
{"smiles": "O=C1c2ccccc2C(=O)C1c1ccnc2ccccc12", "Potency": "inconclusive: 8.91 µM [inhibitor, full curve, poor fit]"}
{"smiles": "Cc1cc(OCC(=O)OCC(=O)N(C)c2c(N)n(Cc3ccccc3)c(=O)[nH]c2=O)ccc1Cl", "Potency": "inconclusive: 39.8 µM [inhibitor, partial curve, poor fit]"}
{"smiles": "Cc1oc(-c2cccc(Cl)c2)nc1CN1CCC(C(=O)N2CCN(c3ccccc3F)CC2)CC1", "Potency": "inconclusive: 79.4 µM [inhibitor, partial curve, poor fit]"}
{"smiles": "CCCN(CCC)C(=O)c1cc(-c2ccc3c(c2)OCO3)nc2ccccc12", "Potency": "inconclusive: 25.1 µM [inhibitor, single point]"}
{"smiles": "C=CCN1C(=O)C(CC(=O)O)S/C1=N/N=C/c1ccc(N(CC)CC)cc1", "note": "(stereo unspecified)", "Potency": "inconclusive: 22.4 µM [inhibitor, full curve]"}
{"smiles": "Cc1nc(Cc2nnc(SCC(=O)N3c4ccccc4NC(=O)C3(C)C)o2)cs1", "Potency": "inconclusive: 20 µM [inhibitor, full curve]"}
{"smiles": "CCOC(=O)[C@@H]1[C@H]2COc3ccccc3[C@@H]2N2C(=O)N(c3ccc(OC)cc3)C(=O)[C@@]12C", "activity change, negative = inhibition": "inactive: -4.37%"}
{"smiles": "COC(=O)c1ccc(COc2cccc3c2CCN(Cc2cccc(C)c2)C3=O)o1", "Potency": "inconclusive: 63.1 µM [inhibitor, partial curve, poor fit]"}
{"smiles": "CCN(CC(=O)NCc1ccc(F)cc1)C(=O)CN1CCN(c2cc(Cl)ccc2C)CC1", "Potency": "inconclusive: 89.1 µM [inhibitor, partial curve, poor fit]"}
{"smiles": "CCN1CCN(C(=O)c2cnn(-c3ccc(F)cc3F)c2C2CCN(C(=O)OC(C)(C)C)CC2)CC1", "activity change, negative = inhibition": "inactive: -9.44%"}
{"smiles": "O=C(COC(=O)c1ccc([N+](=O)[O-])o1)NC1CCCc2ccccc21", "note": "(stereo unspecified)", "Potency": "inconclusive: 17.8 µM [inhibitor, full curve]"}
{"smiles": "Cc1occc1-c1nnc(SCC(=O)NC(C)(C)C)n1CC(C)C", "activity change, negative = inhibition": "inactive: -13.2%"}
{"smiles": "Cc1oc2c(C)c3oc(=O)c(CC(=O)N[C@@H](CC(C)C)C(=O)N[C@@H](Cc4ccccc4)C(=O)O)c(C)c3cc2c1C", "Potency": "active: 20 µM"}
{"smiles": "Cc1cc(N2CCN(c3ccccc3F)CC2)nc2cc(O)ccc12", "Potency": "inconclusive: 100 µM [inhibitor, partial curve, poor fit]"}
{"smiles": "O=C(Nc1ccc(N2CCN(c3ccc(O)cc3)CC2)cc1)Oc1ccccc1", "activity change, negative = inhibition": "inactive: -6.16%"}
{"smiles": "CCCCN1C(=O)c2ccc(C(=O)Nc3ccc(C)c(S(=O)(=O)N(C)C)c3)cc2C1=O", "Potency": "inconclusive: 8.91 µM [inhibitor, partial curve]"}
{"smiles": "CCc1nc2c(c(=O)c3ccccc3n2C)c(=O)n1-c1ccc(F)cc1", "Potency": "inconclusive: 35.5 µM [inhibitor, partial curve, poor fit]"}
{"smiles": "Cc1ccc(-c2nnc(Nc3ccc(C(N)=O)cc3)c3ccccc23)cc1S(N)(=O)=O", "Potency": "inconclusive: 89.1 µM [inhibitor, single point]"}
{"smiles": "O=S(=O)(c1ccc(F)cc1)N1CN(Cc2ccco2)c2nc3ccccc3nc21", "Potency": "inconclusive: 79.4 µM [inhibitor, partial curve]"}
{"smiles": "O=C(NNC(=O)c1cc2cc3ccccc3nc2s1)c1ccc(F)cc1", "Potency": "inconclusive: 14.1 µM [inhibitor, partial curve, poor fit]"}
{"smiles": "O=C(NCCCN1CCN(c2ccc(F)cc2)CC1)c1cc2c(Cl)nc3ccccc3c2s1", "activity change, negative = inhibition": "inactive: -13.3%"}
{"smiles": "Cc1nc(NCCc2ccc(S(N)(=O)=O)cc2)c2c3c(sc2n1)CCC3", "activity change, negative = inhibition": "inactive: -3.58%"}
{"smiles": "O=C(NCCc1nc2ccccc2[nH]1)/C(=C/c1ccc2c(c1)OCO2)NC(=O)c1ccc(Cl)cc1Cl", "Potency": "inconclusive: 39.8 µM [inhibitor, single point]"}
{"smiles": "COCCN(C(=O)COC(=O)c1cc2c(s1)CCCC2)c1c(N)n(Cc2ccccc2)c(=O)[nH]c1=O", "Potency": "active: 44.7 µM"}
{"smiles": "CCOC(=O)C1CCNC(=O)C1=O", "note": "(stereo unspecified)", "Potency": "inconclusive: 28.2 µM [inhibitor, single point]"}
{"smiles": "Cc1cc(C(F)(F)F)c(C#N)c(SCC(=O)Nc2nc3cc(Br)ccc3s2)n1", "activity change, negative = inhibition": "inactive: -14.5%"}
{"smiles": "O=C(CCC(=O)N1CCN(c2ccccn2)CC1)c1ccc(Cl)s1", "Potency": "active: 14.1 µM"}
{"smiles": "O=C(Oc1c(Cl)cc(Cl)c2cccnc12)c1ccco1", "activity change, negative = inhibition": "inactive: -13.4%"}
{"smiles": "COc1ccc(/C=N/Nc2nnc(Cc3ccc(OC)c(OC)c3)c(=O)[nH]2)cc1OC", "Potency": "inconclusive: 35.5 µM [inhibitor, partial curve, poor fit]"}
{"smiles": "C/C(=N\\NC(=O)c1ccc(NS(=O)(=O)c2cccs2)cc1)c1ccc2c(c1)OCO2", "Potency": "inconclusive: 44.7 µM [inhibitor, full curve]"}
{"smiles": "CC(C)=CCC/C(C)=C/CC/C(C)=C/CSc1ccccc1C(=O)O", "Potency": "active: 31.6 µM"}
{"smiles": "[O-][N+]1=c2ccc(Nc3ccccc3)cc2=NC12CCCCC2", "Potency": "inconclusive: 31.6 µM [inhibitor, partial curve, poor fit]"}
{"smiles": "CCOc1ccc(NS(=O)(=O)c2ccc(NC(=S)NC(=O)CC(C)C)cc2)cc1", "Potency": "inconclusive: 17.8 µM [inhibitor, partial curve, poor fit]"}
{"smiles": "CN1/C(=C\\C=C2\\N=C(c3ccc(F)cc3)OC2=O)C(C)(C)c2ccccc21", "Potency": "inconclusive: 31.6 µM [inhibitor, single point]"}
{"smiles": "O=C(O)c1ccc(/C=N/NC(=O)c2cc3ccccc3cc2O)cc1", "Potency": "active: 22.4 µM"}
{"smiles": "COc1ccccc1NC(=O)Nc1ccnn1C1CCN(C(=O)c2ccccn2)CC1", "Potency": "inconclusive: 79.4 µM [inhibitor, partial curve, poor fit]"}
{"smiles": "COc1ccc(C(=O)c2ccc(OC)c(N)c2)cc1N", "activity change, negative = inhibition": "inactive: -1.04%"}
{"smiles": "CCOC(=O)C(C)N1C(=O)S/C(=C/c2cc(C)n(-c3ccccn3)c2C)C1=O", "note": "(stereo unspecified)", "activity change, negative = inhibition": "inactive: -19.5%"}
{"smiles": "CCc1ccc(NC(=O)CSc2ccc3nc(-c4ccc(OC)cc4)cn3n2)cc1", "activity change, negative = inhibition": "inactive: -23.3%"}
{"smiles": "O=C(Nc1nc2ccc(S(=O)(=O)N3CCCC3)cc2s1)c1ccco1", "Potency": "inconclusive: 15.8 µM [inhibitor, partial curve, poor fit]"}
{"smiles": "Cc1c(N2C(=O)c3ccc4c5c(ccc(c35)C2=O)CC4)c(=O)n(-c2ccccc2)n1C", "Potency": "active: 2.82 µM"}
{"smiles": "O=C(NC(Cc1c[nH]c2ccccc12)C(=O)O)/C(=C/c1ccc(F)cc1)NC(=O)c1ccccc1", "note": "(stereo unspecified)", "activity change, negative = inhibition": "inactive: -19.9%"}
{"smiles": "N#Cc1ccc(CSc2nnc(NC(=O)CCc3nc4ccccc4c(=O)[nH]3)s2)cc1", "Potency": "inconclusive: 5.01 µM [inhibitor, partial curve, poor fit]"}
{"smiles": "O=C(N/N=C/C=C/c1ccccc1)c1n[nH]c2c1CCC2", "Potency": "inconclusive: 39.8 µM [inhibitor, partial curve, poor fit]"}
{"smiles": "Clc1ccc(-c2nnc3sc(-c4ccc(Br)o4)nn23)cc1", "Potency": "inconclusive: 8.91 µM [inhibitor, partial curve, poor fit]"}
{"smiles": "Cc1cccc(-c2nc(S(=O)(=O)c3ccc(Cl)cc3)c(N3CCCCCC3)o2)c1", "activity change, negative = inhibition": "inactive: -12.7%"}
{"smiles": "Cc1ccc(C(=O)NCC(c2ccc3c(c2)OCO3)N2CCN(c3ccc(F)cc3)CC2)cc1", "note": "(stereo unspecified)", "activity change, negative = inhibition": "inactive: -8.44%"}
{"smiles": "Cc1cc(C)n2nc(-c3sccc3-n3cccc3)cc2n1", "Potency": "inconclusive: 35.5 µM [inhibitor, partial curve]"}
{"smiles": "COc1ccc(-c2nc3ccc([N+](=O)[O-])cc3[nH]2)cc1", "Potency": "inconclusive: 25.1 µM [inhibitor, partial curve]"}
{"smiles": "Cc1cc(C)cc(Cn2ncc(Cl)c(Cl)c2=O)c1", "Potency": "inconclusive: 25.1 µM [inhibitor, partial curve, poor fit]"}
{"smiles": "Cc1ccc(/C=C2\\SC(=S)N(CC3CCCO3)C2=O)o1", "note": "(stereo unspecified)", "Potency": "inconclusive: 31.6 µM [inhibitor, full curve]"}
{"smiles": "Cc1oc2ccc(O)cc2c1C(=O)c1ccc(F)cc1", "activity change, negative = inhibition": "inactive: -24.3%"}
{"smiles": "CCOc1ccc(C(=O)NCc2nnnn2-c2ccc(C)c(C)c2)cc1OCC", "activity change, negative = inhibition": "inactive: 0.925%"}
{"smiles": "CN(Cc1cc2ccccc2[nH]c1=O)C(=O)C1CCCCC1", "Potency": "inconclusive: 79.4 µM [inhibitor, partial curve, poor fit]"}
{"smiles": "Cc1c(NC(=S)NC(=O)c2ccco2)cccc1-c1nc2ncccc2o1", "Potency": "inconclusive: 15.8 µM [inhibitor, full curve, poor fit]"}
{"smiles": "COc1cc(/C=C2\\SC(c3ccc(C)cc3)=NC2=O)cc(OC)c1O", "activity change, negative = inhibition": "inactive: -32.3%"}
{"smiles": "COC(=O)c1ccc(OCC2c3cc(OC)c(OC)cc3CCN2C(=O)c2ccccc2C)cc1", "note": "(stereo unspecified)", "Potency": "inconclusive: 56.2 µM [inhibitor, partial curve, poor fit]"}
{"smiles": "CCOc1cc(CO)cc(Br)c1OCC(=O)O", "Potency": "active: 15.8 µM"}
{"smiles": "Cc1ccc(S(=O)(=O)Nc2cc(=O)[nH]c(SCC(=O)Nc3ccccc3Cl)n2)cc1", "activity change, negative = inhibition": "inactive: -20.8%"}
